# Values joined by “and” are separate entries in the source; they are usually repeats but may differ in a detail not shown here. Equal entries are not always repeated. The shares of active, inactive and inconclusive entries below differ from those in the screen. Entries that show only a call come without a potency. For part of these data: Potencies of inconclusive entries are doubtful fits and often do not repeat. Active and inactive are the calls of the source. Unless noted, calls follow the shape of the full dose curve.
# What was measured:
# [1] = qHTS assay to identify small molecule agonists of the farnesoid-X-receptor (FXR) signaling pathway - cell viability counter screen (AID 743218; active = well fitted curve in the direction sought with a large enough effect in the repeat runs; inconclusive = weak or mixed curves; inactive = no such curve, though single readings can be large; an effect the other way counts as inactive or inconclusive; also: nearly all actives have a fitted effect of over 45% in size; also: potency is read from the fitted curve at half-maximal effect); conditions: FXR-bla HEK293T viability, CellTiter-Glo luminescence, 16 h; viability change, negative = cytotoxic: at 62.6 µM (top of the series) unless noted
# In short: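 FXR-UAS-bla HEK 293T cells exposed to compounds for 16 h at 37C. Cytotoxicity read in the same wells by CellTiter-Glo luminescence after 30 min at room temperature, following the beta-lactamase FRET read.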
# [2] = qHTS assay to identify small molecule agonists of the endoplasmic reticulum stress response signaling pathway (AID 1159516; active = well fitted activation curve with a large enough effect in the signal ratio in the repeat runs, not every such curve was filed as active; inconclusive = weak or mixed curves, or effect the other way; the % refers to the signal ratio; also: potency is read from the fitted curve at half-maximal effect); conditions: ESRE-bla HeLa, ER stress beta-lactamase reporter, 5 h; activation: at 61 µM (top of the series) unless noted
# In short: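 CellSensor ESRE-bla HeLa cells, 1,500 per well, plated overnight, then exposed to compounds for 5 hr at 37 C. Beta-lactamase reporter read with LiveBLAzer B/G FRET substrate after 2 hr at room temperature, 405 nm excitation, 460 and 530 nm emission.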
# [3] = biological target: Nuclear receptor ROR-gamma (Homo sapiens) (UniProt P51449); assay: qHTS assay to identify small molecule antagonists of the retinoid-related orphan receptor gamma (ROR-gamma) signaling pathway (AID 1159521; active = well fitted curve in the direction sought with a large enough effect in the repeat runs; inconclusive = weak or mixed curves; inactive = no such curve, though single readings can be large; an effect the other way counts as inactive or inconclusive; also: nearly all actives have a fitted effect of over 50% in size; also: potency is read from the fitted curve at half-maximal effect;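 as to activity change, negative = inhibition: CHO cells with doxycycline inducible ROR-gamma driving an RORE luciferase reporter; top concentration of the series differs between compounds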)
# In short: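 Luminescence readout (ONE-Glo, 30 min RT) after 16 h doxycycline induction; loss of signal scored as antagonism. CHO cells with TET-inducible RORγ and RORE-LUC reporter; compounds added 2 h before 1 uM final doxycycline.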
# [4] = qHTS assay to identify small molecule agonists of the RXR signaling pathway - cell viability counter screen (AID 1159529; active = well fitted curve in the direction sought with a large enough effect in the repeat runs; inconclusive = weak or mixed curves; inactive = no such curve, though single readings can be large; an effect the other way counts as inactive or inconclusive; also: nearly all actives have a fitted effect of over 50% in size; also: potency is read from the fitted curve at half-maximal effect)
# In short: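 Luminescence from CellTiter-Glo (30 min, RT) measured viability in the same wells as the beta-lactamase reporter readout. Cells: GeneBLAzer RXR-alpha HEK 293T, 2% charcoal-stripped FBS. Compound exposure 16 hr, 37 C.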
# [5] = biological target: Vitamin D3 receptor (Homo sapiens) (UniProt P11473); assay: qHTS assay to identify small molecule antagonists of the vitamin D receptor (VDR) signaling pathway (AID 743223; active = well fitted inhibition curve with a large enough effect in the signal ratio in the repeat runs, not every such curve was filed as active; inconclusive = weak or mixed curves, or effect the other way; inactive = no such curve, though single readings can be large or run the other way; the % refers to the signal ratio; also: potency is read from the fitted curve at half-maximal effect); conditions: VDR-UAS-bla HEK293T, beta-lactamase FRET ratio, 16 h; activity change, negative = inhibition: at 61 µM (top of the series) unless noted
# Chain of UniProt P11473 (P11473 whole entry, looked up): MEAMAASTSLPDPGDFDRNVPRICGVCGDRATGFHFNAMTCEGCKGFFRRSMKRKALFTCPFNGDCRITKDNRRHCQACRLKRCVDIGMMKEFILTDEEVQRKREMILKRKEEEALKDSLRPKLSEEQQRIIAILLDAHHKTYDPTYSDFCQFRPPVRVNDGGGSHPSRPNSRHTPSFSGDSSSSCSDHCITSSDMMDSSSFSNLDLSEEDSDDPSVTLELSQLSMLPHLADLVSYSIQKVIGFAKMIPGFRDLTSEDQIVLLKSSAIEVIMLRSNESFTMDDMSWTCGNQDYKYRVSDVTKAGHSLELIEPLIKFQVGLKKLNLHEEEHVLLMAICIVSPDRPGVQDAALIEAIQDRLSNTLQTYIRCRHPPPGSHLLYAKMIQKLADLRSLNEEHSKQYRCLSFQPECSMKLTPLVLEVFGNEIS
# In short: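 Beta-lactamase reporter read-out: FRET substrate fluorescence after 2 h at room temperature, following 16 h exposure of VDR-bla cells to test compound plus 3 nM (final) 1alpha,25-dihydroxyvitamin D3 agonist at 37C.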
# [6] = biological target: Peroxisome proliferator-activated receptor delta (Homo sapiens) (UniProt Q03181); assay: qHTS assay to identify small molecule antagonists of the peroxisome proliferator-activated receptor delta (PPARd) signaling pathway (AID 743215; active = well fitted inhibition curve with a large enough effect in the signal ratio in the repeat runs, not every such curve was filed as active; inconclusive = weak or mixed curves, or effect the other way; inactive = no such curve, though single readings can be large or run the other way; the % refers to the signal ratio;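 also: cells stimulated with agonist L165041 at 300 nM final during compound exposure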; also: potency is read from the fitted curve at half-maximal effect); conditions: HEK293H PPARd-UAS-bla, beta-lactamase FRET ratio, antagonist, 17 h; ratio activity, negative = inhibition: at 62 µM (top of the series) unless noted
# Chain of UniProt Q03181 (Q03181 whole entry, looked up): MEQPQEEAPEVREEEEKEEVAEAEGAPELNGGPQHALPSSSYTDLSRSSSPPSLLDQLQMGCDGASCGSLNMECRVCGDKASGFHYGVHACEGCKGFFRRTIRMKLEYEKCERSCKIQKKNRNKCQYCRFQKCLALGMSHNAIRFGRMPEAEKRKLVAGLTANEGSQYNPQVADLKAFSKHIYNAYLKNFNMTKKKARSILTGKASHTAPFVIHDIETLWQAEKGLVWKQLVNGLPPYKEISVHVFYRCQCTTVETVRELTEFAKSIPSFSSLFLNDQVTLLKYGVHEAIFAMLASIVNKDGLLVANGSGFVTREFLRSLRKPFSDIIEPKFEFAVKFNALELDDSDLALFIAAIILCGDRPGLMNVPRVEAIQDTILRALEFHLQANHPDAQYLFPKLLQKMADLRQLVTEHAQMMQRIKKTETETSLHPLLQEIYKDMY
# In short: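 PPARd-bla HEK293H cells (UAS-bla reporter) preincubated 5 h, then given compound plus 300 nM final L165041 agonist for 17 h at 37 C. Beta-lactamase activity read by LiveBLAzer B/G FRET substrate fluorescence after 2 h at room temperature.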
# [7] = qHTS assay to identify small molecule agonists of the vitamin D receptor (VDR) signaling pathway - cell viability counter screen (AID 743224; active = well fitted curve in the direction sought with a large enough effect in the repeat runs; inconclusive = weak or mixed curves; inactive = no such curve, though single readings can be large; an effect the other way counts as inactive or inconclusive; also: nearly all actives have a fitted effect of over 50% in size; also: potency is read from the fitted curve at half-maximal effect); conditions: VDR-bla HEK293T viability, CellTiter-Glo luminescence, 16 h; activity change, negative = cytotoxicity: at 62.6 µM (top of the series)
# In short: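 VDR-bla cells, 4 h after plating, exposed to compounds for 16 h at 37C; viability then read in the same wells as CellTiter-Glo luminescence after 30 min at room temperature, following the bla FRET read.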
# [8] = qHTS assay to identify small molecule antagonists of the vitamin D receptor (VDR) signaling pathway - cell viability counter screen (AID 743225; active = well fitted curve in the direction sought with a large enough effect in the repeat runs; inconclusive = weak or mixed curves; inactive = no such curve, though single readings can be large; an effect the other way counts as inactive or inconclusive; also: nearly all actives have a fitted effect of over 50% in size; also: potency is read from the fitted curve at half-maximal effect); conditions: VDR-bla HEK293T viability, CellTiter-Glo luminescence, 16 h; viability change, negative = cytotoxic: at 61 µM (top of the series) unless noted
# In short: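 Viability counter screen run in the same wells as the beta-lactamase reporter assay: HEK 293T VDR-UAS-bla cells, 16 h compound exposure at 37C with 3 nM (final) 1-alpha,25-dihydroxyvitamin D3. CellTiter-Glo luminescence, 30 min, room temperature.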
# [9] = biological target: Retinoic acid receptor RXR-alpha (Homo sapiens) (UniProt P19793); assay: qHTS assay to identify small molecule agonists of the RXR signaling pathway (AID 1159527); conditions: HEK293T RXRa-UAS-bla, beta-lactamase ratio, 16 h; activation: at 76.8 µM (top of the series) unless noted; also: nearly all actives have a fitted effect of over 35% in size; also: potency is read from the fitted curve at half-maximal effect
# Chain of UniProt P19793 (P19793 whole entry, looked up): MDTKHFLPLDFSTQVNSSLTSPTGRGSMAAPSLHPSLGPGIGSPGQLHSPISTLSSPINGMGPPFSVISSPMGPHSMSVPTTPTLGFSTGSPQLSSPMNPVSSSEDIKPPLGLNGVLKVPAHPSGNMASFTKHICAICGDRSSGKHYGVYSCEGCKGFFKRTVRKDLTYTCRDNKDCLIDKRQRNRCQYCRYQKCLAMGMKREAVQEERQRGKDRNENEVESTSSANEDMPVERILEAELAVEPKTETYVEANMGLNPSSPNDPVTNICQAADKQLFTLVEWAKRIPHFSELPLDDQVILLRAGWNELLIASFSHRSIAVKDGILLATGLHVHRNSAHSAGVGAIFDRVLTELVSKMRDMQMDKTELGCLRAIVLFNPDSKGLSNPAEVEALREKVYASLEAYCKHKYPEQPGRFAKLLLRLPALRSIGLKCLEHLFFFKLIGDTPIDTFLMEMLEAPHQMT
# In short: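 Agonist mode; 9-cis retinoic acid positive control. HEK 293T UAS-bla reporter cells, 2% charcoal-stripped FBS, 16 hr compound exposure at 37 C/5% CO2. LiveBLAzer B/G FRET substrate 2 hr RT; ex 405, em 460/530 nm.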
# [10] = biological target: Bile acid receptor (Homo sapiens) (UniProt Q96RI1); assay: qHTS assay to identify small molecule antagonists of the farnesoid-X-receptor (FXR) signaling pathway (AID 743217; active = well fitted inhibition curve with a large enough effect in the signal ratio in the repeat runs, not every such curve was filed as active; inconclusive = weak or mixed curves, or effect the other way; inactive = no such curve, though single readings can be large or run the other way; the % refers to the signal ratio; also: potency is read from the fitted curve at half-maximal effect); conditions: HEK293T FXR-UAS-bla, beta-lactamase ratio, CDCA-stimulated, 16 h; activity change, negative = inhibition: at 62.6 µM (top of the series) unless noted
# Chain of UniProt Q96RI1 (Q96RI1 whole entry, looked up): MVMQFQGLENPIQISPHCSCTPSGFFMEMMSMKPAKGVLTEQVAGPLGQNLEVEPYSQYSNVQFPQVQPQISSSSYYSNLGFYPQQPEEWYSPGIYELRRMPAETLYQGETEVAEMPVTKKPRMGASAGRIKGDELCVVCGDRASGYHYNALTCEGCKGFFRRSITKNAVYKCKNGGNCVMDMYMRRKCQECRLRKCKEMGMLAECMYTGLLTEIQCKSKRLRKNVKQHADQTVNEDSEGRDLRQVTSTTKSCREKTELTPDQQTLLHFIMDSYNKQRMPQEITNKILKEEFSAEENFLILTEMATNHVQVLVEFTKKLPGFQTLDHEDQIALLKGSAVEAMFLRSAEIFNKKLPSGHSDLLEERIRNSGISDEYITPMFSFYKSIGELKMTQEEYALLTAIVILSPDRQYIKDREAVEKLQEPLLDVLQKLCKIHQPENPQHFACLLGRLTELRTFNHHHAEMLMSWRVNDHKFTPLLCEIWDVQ
# In short: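 FXR-UAS-bla HEK 293T cells (beta-lactamase reporter) given compound plus chenodeoxycholic acid (50 uM final), 16 h at 37C. LiveBLAzer B/G FRET substrate added for 2 h at room temperature; fluorescence read.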
# [11] = qHTS assay to identify small molecule agonists of the AP-1 signaling pathway - cell viability counter screen (AID 1159525); also: nearly all actives have a fitted effect of over 55% in size; also: potency is read from the fitted curve at half-maximal effect
# In short: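 AP-1-bla ME-180 cells in Opti-MEM with 0.5% dialyzed FBS, compound exposure 5 h at 37 C in 15-point titration. Viability read in the same wells as ATP content by CellTiter-Glo luminescence, normalised to tetra-n-octylammonium bromide and DMSO controls.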
# [12] = qHTS assay to identify small molecule antagonists of the peroxisome proliferator-activated receptor delta (PPARd) signaling pathway - cell viability counter screen (AID 743213; active = well fitted curve in the direction sought with a large enough effect in the repeat runs; inconclusive = weak or mixed curves; inactive = no such curve, though single readings can be large; an effect the other way counts as inactive or inconclusive; also: nearly all actives have a fitted effect of over 50% in size; also: potency is read from the fitted curve at half-maximal effect); conditions: PPARd-bla HEK293H viability, CellTiter-Glo luminescence, 17 h; viability change, negative = cytotoxic: at 62 µM (top of the series) unless noted
# In short: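 Cytotoxicity counter screen: CellTiter-Glo luminescence read 30 min after addition, in the same wells as the reporter assay. There, PPARd UAS-bla HEK293H cells (3000/well) were treated 17 h at 37 C with compound and 300 nM L165041.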
# [13] = biological target: Vitamin D3 receptor (Homo sapiens) (UniProt P11473); assay: qHTS assay to identify small molecule agonists of the vitamin D receptor (VDR) signaling pathway (AID 743222); conditions: HEK293T VDR-UAS-bla, beta-lactamase FRET ratio, 16 h; activation: at 63.5 µM (top of the series) unless noted; also: potency is read from the fitted curve at half-maximal effect
# In short: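 VDR-bla cells plated 4 h at 37 C, then exposed to compounds for 16 h at 37 C. Beta-lactamase reporter activity measured by fluorescence after 2 h room-temperature loading with LiveBLAzer B/G FRET substrate.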
# [14] = qHTS assay to identify small molecule agonists of the AP-1 signaling pathway (AID 1159526); conditions: ME-180 (cervical carcinoma) AP-1-bla reporter, beta-lactamase FRET ratio, 5 h; activation: at 76.8 µM (top of the series) unless noted; also: potency is read from the fitted curve at half-maximal effect
# [15] = biological target: Bile acid receptor (Homo sapiens) (UniProt Q96RI1); assay: qHTS assay to identify small molecule agonists of the farnesoid-X-receptor (FXR) signaling pathway (AID 743220; active = well fitted activation curve with a large enough effect in the signal ratio in the repeat runs, not every such curve was filed as active; inconclusive = weak or mixed curves, or effect the other way; the % refers to the signal ratio); conditions: HEK293T FXR-UAS-bla, beta-lactamase FRET ratio, 16 h; activation: at 62.6 µM (top of the series) unless noted
# In short: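 Beta-lactamase reporter under UAS control in GeneBLAzer FXR HEK 293T cells (5000/well) measured with LiveBLAzer FRET substrate after 2 h at room temperature. Compound exposure lasted 16 h at 37C.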
# [16] = qHTS assay to identify small molecule antagonists of the retinoid acid receptor (RAR) signaling pathway - cell viability counter screen (AID 1159551; active = well fitted curve in the direction sought with a large enough effect in the repeat runs; inconclusive = weak or mixed curves; inactive = no such curve, though single readings can be large; an effect the other way counts as inactive or inconclusive; also: nearly all actives have a fitted effect of over 35% in size)
# In short: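 C3RL4 RARE-luciferase cells, 1,000/well, incubated overnight, then dosed with compound plus 1 uM retinol (final). After 6 hr at 37 C, viability read by CellTiter-Glo ATP luminescence following 30 min at room temperature.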
# [17] = biological target: Peroxisome proliferator-activated receptor delta (Homo sapiens) (UniProt Q03181); assay: qHTS assay to identify small molecule agonists of the peroxisome proliferator-activated receptor delta (PPARd) signaling pathway (AID 743212); conditions: HEK293H PPARd-UAS-bla, beta-lactamase FRET ratio, 17 h; activation: at 62.6 µM (top of the series) unless noted
# In short: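 Quantitative high-throughput agonist screen in a HEK293H beta-lactamase reporter line under UAS control. Compounds in DMSO, at 37 C. Fluorescence read after 2 h with FRET substrate at room temperature.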
# Tags tell the direction and shape of the fitted curve or compound fluorescence and quenching.
smiles,measurement,setting,value
O=C1CCCCCCCCCCCCCCCO1,Potency,[1],"inconclusive: 0.174 µM [cytotoxic, full curve, poor fit]"
same,Potency,[2],"inconclusive: 21.9 µM [fluorescent, single point]"
same,Potency,[3],inactive
CCc1nnc(NS(=O)(=O)c2ccc(N)cc2)s1,Potency,[2],inactive
same,Potency,[3],"inconclusive: 11.9 µM [inhibitor, single point]"
same,Potency,[4],inactive
CC(C)(C)c1ccccc1,Potency,[1],inactive
same,Potency,[5],"inconclusive: 54.9 µM [activator, single point]"
same,Potency,[2],inactive
same,Potency,[3],inactive
CCCCCCOC(=O)CC(CC(=O)OCCCCCC)(OC(=O)CCC)C(=O)OCCCCCC,"ratio activity, negative = inhibition",[6],inconclusive: -22.8%
same,"activity change, negative = inhibition",[5],inconclusive: -3.55%
same,Potency,[7],"inconclusive: 11 µM [cytotoxic, full curve, poor fit]"
same,Potency,[8],"inconclusive: 0.0616 µM [cytotoxic, full curve, poor fit]"
same,Potency,[2],inactive
same,Potency,[3],inactive
same,Potency,[9],"inconclusive: 19.5 µM [activator, partial curve, poor fit]"
Clc1ccc(Cl)c(Cl)c1Cl,"ratio activity, negative = inhibition",[6],inconclusive: -3.46%
same,"activity change, negative = inhibition",[10],inconclusive: 5.94%
same,Potency,[1],inactive
same,"activity change, negative = inhibition",[5],inconclusive: 10.5%
same,Potency,[2],"inconclusive: 0.216 µM [falling, full curve, poor fit]"
same,Potency,[11],inactive
same,activation,[9],inconclusive: 31.7% and inconclusive: 0.237%
N#Cc1cc(NC(=O)C(=O)O)c(Cl)c(NC(=O)C(=O)O)c1,Potency,[12],inactive
same,Potency,[2],inactive
same,Potency,[11],inactive
same,Potency,[9],inactive
COc1nc(C)nc(NC(=O)NS(=O)(=O)c2ccccc2OCCCl)n1,Potency,[12],inactive
same,Potency,[13],inactive
same,Potency,[5],"inconclusive: 5.46 µM [inhibitor, single point]"
same,Potency,[8],inactive
same,Potency,[2],inactive
same,Potency,[3],"inconclusive: 5.42 µM [inhibitor, full curve]"
NC/C=C/C(=O)O,Potency,[13],inactive
same,Potency,[5],inactive
same,Potency,[2],inactive
same,Potency,[11],"inconclusive: 0.0015 µM [rising, full curve, poor fit]"
same,Potency,[14],inactive
CCCCOC(=O)CCS,Potency,[6],inactive
same,"activity change, negative = inhibition",[10],inconclusive: 0.223%
same,"activity change, negative = inhibition",[5],inconclusive: 21.1%
same,Potency,[2],inactive
same,Potency,[3],"inconclusive: 30.6 µM [inhibitor, partial curve]"
same,Potency,[9],inactive
O=C(O)C1CCC1,Potency,[2],inactive
same,Potency,[14],inactive
C=COCCOCCOC=C,Potency,[5],"inconclusive: 21.9 µM [activator, single point]"
same,Potency,[2],inactive
same,Potency,[14],inactive
same,Potency,[9],inactive
same,Potency,[4],inactive
Nc1cccc2c1CN(C1CCC(=O)NC1=O)C2=O (configuration not stated),Potency,[12],inactive
same,"activity change, negative = inhibition",[5],inconclusive: 27.7%
same,Potency,[2],"inconclusive: 10.7 µM [rising, single point]"
same,Potency,[11],"inconclusive: 0.239 µM [cytotoxic, single point]"
COc1cc2c(cc1OC)C(C(C(=O)N(CCc1ccc(OC)c(OC)c1OC)CCc1ccc(OC)c(OC)c1OC)c1ccccc1)=NCC2 (configuration not stated),Potency,[12],inactive
same,Potency,[10],"inconclusive: 29.8 µM [rising, partial curve, poor fit]"
same,Potency,[1],"inconclusive: 0.188 µM [rising, partial curve, poor fit]"
same,activation,[15],inconclusive: 4.77%
same,Potency,[13],inconclusive: 29.8 µM
same,Potency,[2],inactive
same,Potency,[11],"inconclusive: 12 µM [cytotoxic, partial curve, poor fit]"
same,Potency,[16],inactive
CC(=O)OCC(C)C,Potency,[5],inactive
same,Potency,[2],"inconclusive: 60.3 µM [activator, single point]"
same,Potency,[11],inactive
same,activation,[9],inconclusive: 14.7%
CC1C(C)(C)C2=C(C(=O)CCC2)C1(C)C (configuration not stated),Potency,[17],inactive
same,Potency,[13],inactive
same,Potency,[2],"inconclusive: 0.49 µM [falling, single point]"
same,activation,[14],inconclusive: -1.21%
same,Potency,[9],inactive
CN(CCCN1c2ccccc2CCc2ccccc21)CC(=O)c1ccc(Cl)cc1,Potency,[6],inactive
same,Potency,[1],inactive
same,Potency,[2],inactive
same,Potency,[14],inconclusive: 16.9 µM [partial curve]
same,activation,[9],inconclusive: -29.8% [at 35.3 µM]
same,Potency,[4],"inconclusive: 6.74 µM [cytotoxic, partial curve, poor fit]"
O=Cc1ccc([N+](=O)[O-])cc1,Potency,[2],inactive
same,activation,[14],inconclusive: 22.7%
same,Potency,[9],inactive
COc1ccc(O)cc1,Potency,[12],"inconclusive: 33.4 µM [cytotoxic, partial curve, poor fit]"
same,Potency,[6],"inconclusive: 26.5 µM [rising, partial curve, poor fit]"
same,Potency,[7],"inconclusive: 52.9 µM [cytotoxic, single point] and inconclusive: 43.6 µM [cytotoxic, partial curve] and inactive"
same,activation,[2],inconclusive: -6.63%
same,Potency,[11],"inconclusive: 0.0155 µM [rising, full curve, poor fit]"

# From PubChem BioAssay (Tox21)
